{
  "source": "PubChem BioAssay AID624417",
  "about": "(National Center for Advancing Translational Sciences (NCATS), 2012)",
  "note": "The whole screen tested about 410,000 compounds, of which about 6,400 (1.6%) were called active. The shares of active, inactive and inconclusive entries below differ from those in the screen. Calls follow the shape of the dose curve; as a rule, active = well fitted inhibition curve with a large enough effect; inconclusive = small, poorly fitted or top-dose-only effect; inactive = no such curve, though single readings can be large or run the other way. No potency is given beside an inconclusive call; the fits are too rough. % is scaled to controls: 0 for no effect and ±100 for the full control effect; potency is read from the fitted curve at half-maximal effect; tags tell the direction and shape of the fitted curve.",
  "data": [
    {"molecular_target": "Glucagon-like peptide 1 receptor (Homo sapiens) (UniProt P43220)", "sequence (P43220 whole entry, looked up)": "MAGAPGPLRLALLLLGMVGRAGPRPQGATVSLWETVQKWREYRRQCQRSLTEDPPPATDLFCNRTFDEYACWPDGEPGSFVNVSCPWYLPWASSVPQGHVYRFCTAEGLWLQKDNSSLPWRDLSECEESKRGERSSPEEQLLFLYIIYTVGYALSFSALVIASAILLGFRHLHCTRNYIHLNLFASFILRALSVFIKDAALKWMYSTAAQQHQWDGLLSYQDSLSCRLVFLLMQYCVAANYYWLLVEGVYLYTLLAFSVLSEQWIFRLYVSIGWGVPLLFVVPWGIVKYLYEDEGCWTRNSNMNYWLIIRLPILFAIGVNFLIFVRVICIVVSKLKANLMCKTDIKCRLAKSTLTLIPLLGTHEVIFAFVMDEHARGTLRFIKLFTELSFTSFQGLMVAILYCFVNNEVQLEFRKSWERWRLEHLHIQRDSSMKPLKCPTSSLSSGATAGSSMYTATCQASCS", "assay": "qHTS of GLP-1 Receptor Inverse Agonists (Inhibition Mode); also: nearly all actives have a fitted effect of over 55% in size", "settings": "HEK293 GLP-1R CRE-luciferase, luminescence, 24 h, GLP-1R form is constitutively active; activity change, negative = inhibition: at 38.3 µM (top of the series) unless noted", "how_it_was_run": "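Cells are plated, allowed 12 hours at 37 deg C, then treated with compounds for 24 hr before luciferase detection reagent is added and luminescence is read after 12 min at room temperature. The HEK293 line carries constitutively active GLP-1R with a cAMP-responsive reporter.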", "values": [
      {"smiles": "COCCCNC(=O)CC(c1cc(OC)c(OC)c(OC)c1)N1Cc2ccccc2C1=O", "note": "(stereo not given)", "Potency": "inactive"},
      {"smiles": "COc1ccc(C2=NNC(=O)C2(C)Br)cc1", "note": "(stereo not given)", "Potency": "inactive"},
      {"smiles": "CCC1Nc2ncnc(N3CCCCC3)c2N(Cc2ccc(OC)cc2)C1=O", "note": "(stereo not given)", "Potency": "inconclusive [inhibitor, single point]"},
      {"smiles": "O=C(Nc1ccc2ccccc2c1)Nc1ccc2snnc2c1", "Potency": "inconclusive [inhibitor, partial curve, poor fit]"},
      {"smiles": "COc1ccc(NC(=O)C(Cc2ccccc2)NS(=O)(=O)c2ccc(Br)s2)cc1OC", "note": "(stereo not given)", "Potency": "inconclusive [inhibitor, single point]"},
      {"smiles": "O=C(Nc1ncc(Cc2cccc([N+](=O)[O-])c2)s1)c1ccco1", "Potency": "inconclusive [inhibitor, full curve, poor fit]"},
      {"smiles": "C=CCN(c1cccc(C(F)(F)F)c1)S(=O)(=O)c1cccc(C(=O)OCC(=O)Nc2ccccc2)c1", "Potency": "inconclusive [inhibitor, single point]"},
      {"smiles": "CN(Cc1cccs1)C(=O)CCCc1c[nH]c2ccccc12", "Potency": "inconclusive [inhibitor, full curve, poor fit]"},
      {"smiles": "CCn1nc(NC(=O)Cc2ccc(OC)cc2)c2cc3cccc(C)c3nc21", "Potency": "inconclusive [inhibitor, single point]"},
      {"smiles": "COc1c(N2CCN(C(=S)Nc3ccccc3F)C(C)C2)c(F)cc2c(=O)c(C(=O)O)cn(C3CC3)c12", "note": "(stereo not given)", "Potency": "inconclusive [inhibitor, full curve, poor fit]"},
      {"smiles": "COc1ccc(OCCSc2ccc(S(=O)(=O)N3CCCC3)cn2)cc1", "Potency": "inconclusive [inhibitor, single point]"},
      {"smiles": "CN1CCN(/N=C/c2ccc(Cl)c(Cl)c2)CC1", "Potency": "inconclusive [inhibitor, single point]"},
      {"smiles": "O=C(O)c1cc2cccc(S(=O)(=O)N3CCCCC3)c2cc1O", "Potency": "inactive"},
      {"smiles": "Cc1ccc(C(=O)NC2CCC(C)CC2)s1", "note": "(stereo not given)", "Potency": "inconclusive [inhibitor, single point]"},
      {"smiles": "COc1ccc(C(=O)Nc2ccc(NC(=O)c3cccs3)cc2)cc1[N+](=O)[O-]", "Potency": "inconclusive [inhibitor, partial curve, poor fit]"},
      {"smiles": "CC1Cc2ccccc2N1C(=O)CSc1nc(-c2ccccc2)cs1", "note": "(stereo not given)", "Potency": "inconclusive [inhibitor, partial curve]"},
      {"smiles": "CCCNC(=O)c1noc2c1CCc1cc(OC)ccc1-2", "Potency": "inconclusive [inhibitor, single point]"},
      {"smiles": "Cc1ccc(C(=O)N/C(=C\\c2cccs2)C(=O)NCCc2c[nH]c3ccccc23)cc1C", "Potency": "inconclusive [inhibitor, single point]"},
      {"smiles": "Cc1ccc(C)c(C(Nc2ccccc2)c2ccc3ccc(C)nc3c2O)c1", "note": "(stereo not given)", "Potency": "active: 5.62 µM"},
      {"smiles": "O=C(NCCS(=O)(=O)NCc1ccc(F)cc1)c1ccc2c(c1)OCO2", "Potency": "inconclusive [inhibitor, single point]"},
      {"smiles": "O=[N+]([O-])c1ccccc1S(=O)(=O)N1CCCC(C(F)(F)F)C1", "note": "(stereo not given)", "Potency": "inconclusive [inhibitor, single point]"},
      {"smiles": "Brc1c(-c2ccccc2)nc2n1Cc1ccccc1-2", "Potency": "inconclusive [inhibitor, partial curve, poor fit]"},
      {"smiles": "COc1ccc(N(CC(=O)N2CCN(c3ccc(Cl)cc3)CC2)S(=O)(=O)c2c(C)noc2C)cc1", "Potency": "inconclusive [inhibitor, partial curve, poor fit]"},
      {"smiles": "COc1cc(NC(=S)N2CCN(c3ccccn3)CC2)cc(OC)c1OC", "Potency": "inactive"},
      {"smiles": "C=CCOc1ccc(C2CC(C)=NN2c2ccccc2)cc1", "note": "(stereo not given)", "Potency": "inconclusive [inhibitor, partial curve, poor fit]"},
      {"smiles": "COC(=O)c1ccc(CNC(=O)c2cc(S(=O)(=O)NCc3ccccc3)ccc2C)cc1", "Potency": "inconclusive [inhibitor, single point]"},
      {"smiles": "O=c1[nH]c(NNC(=S)NCc2ccccc2)nc2c1C1(CCCCC1)Cc1ccccc1-2", "Potency": "inconclusive [inhibitor, partial curve, poor fit]"},
      {"smiles": "COc1cccc(C(=O)NC2CCCc3c2cnn3-c2cc(C)cc(C)c2)c1", "note": "(stereo not given)", "Potency": "inconclusive [inhibitor, partial curve, poor fit]"},
      {"smiles": "CCC(C)c1ccccc1N1CC(C(=O)Nc2ccccc2N2CCCC2)CC1=O", "note": "(stereo not given)", "Potency": "inconclusive [inhibitor, single point]"},
      {"smiles": "N#Cc1c(-c2ccccc2)cc(-c2ccccc2)nc1SCCC(=O)O", "Potency": "inconclusive [inhibitor, single point]"},
      {"smiles": "CCOc1cc(C(=O)Nc2ccc3oc(-c4ccc(CC)cc4)nc3c2)cc(OCC)c1OCC", "Potency": "inconclusive [inhibitor, partial curve, poor fit]"},
      {"smiles": "O=S(=O)(Nc1cccc2ncccc12)c1cccs1", "Potency": "inconclusive [inhibitor, full curve, poor fit]"},
      {"smiles": "Cc1ccc(-c2cc(C(=O)NCc3ccccn3)c3ccccc3n2)cc1", "Potency": "inconclusive [inhibitor, single point]"},
      {"smiles": "COc1ccc(CCNC(=O)CCc2c(C)nc3cc(-c4ccccc4)nn3c2C)cc1OC", "Potency": "inactive"},
      {"smiles": "O=C(OCc1ccc(COC(=O)c2ccc(O)cc2)cc1)c1ccc(O)cc1", "activity change, negative = inhibition": "inconclusive: -67.4% [inhibitor]"},
      {"smiles": "S=C(NCCCCNC(=S)NCc1ccccc1)NCc1ccccc1", "Potency": "inconclusive [inhibitor, partial curve]"},
      {"smiles": "Cn1c(NC(=O)c2ccccc2)nc2ccccc21", "Potency": "inconclusive [inhibitor, single point]"},
      {"smiles": "Cc1ccsc1C(=O)OCC(=O)N(Cc1ccccc1)C(C)C", "Potency": "inconclusive [inhibitor, partial curve, poor fit]"},
      {"smiles": "O=C1/C(=C\\c2cc([N+](=O)[O-])ccc2O)SC(=S)N1Cc1ccc(Cl)cc1", "Potency": "inconclusive [inhibitor, partial curve]"},
      {"smiles": "COc1ccc(C)cc1NS(=O)(=O)c1ccc2c(c1)[C@H]1C=CC[C@H]1[C@@H](c1cccc(Cl)c1)N2", "Potency": "inconclusive [inhibitor, full curve]"}
    ]}
  ]
}
